These results are taken from paper PMC4336329 (PLoS ONE, 2015).

Among all 310,000 compounds or so, about 14,000 (4.5%) showed an effect of 50% or more. The effect is printed as a negative number. Some of the results follow.
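Note: peak tail current of the secondary pulse compared with the same well before compound.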

Sequence of human ether-à-go-go-related gene (hERG) potassium channel (Q12809 whole entry, looked up): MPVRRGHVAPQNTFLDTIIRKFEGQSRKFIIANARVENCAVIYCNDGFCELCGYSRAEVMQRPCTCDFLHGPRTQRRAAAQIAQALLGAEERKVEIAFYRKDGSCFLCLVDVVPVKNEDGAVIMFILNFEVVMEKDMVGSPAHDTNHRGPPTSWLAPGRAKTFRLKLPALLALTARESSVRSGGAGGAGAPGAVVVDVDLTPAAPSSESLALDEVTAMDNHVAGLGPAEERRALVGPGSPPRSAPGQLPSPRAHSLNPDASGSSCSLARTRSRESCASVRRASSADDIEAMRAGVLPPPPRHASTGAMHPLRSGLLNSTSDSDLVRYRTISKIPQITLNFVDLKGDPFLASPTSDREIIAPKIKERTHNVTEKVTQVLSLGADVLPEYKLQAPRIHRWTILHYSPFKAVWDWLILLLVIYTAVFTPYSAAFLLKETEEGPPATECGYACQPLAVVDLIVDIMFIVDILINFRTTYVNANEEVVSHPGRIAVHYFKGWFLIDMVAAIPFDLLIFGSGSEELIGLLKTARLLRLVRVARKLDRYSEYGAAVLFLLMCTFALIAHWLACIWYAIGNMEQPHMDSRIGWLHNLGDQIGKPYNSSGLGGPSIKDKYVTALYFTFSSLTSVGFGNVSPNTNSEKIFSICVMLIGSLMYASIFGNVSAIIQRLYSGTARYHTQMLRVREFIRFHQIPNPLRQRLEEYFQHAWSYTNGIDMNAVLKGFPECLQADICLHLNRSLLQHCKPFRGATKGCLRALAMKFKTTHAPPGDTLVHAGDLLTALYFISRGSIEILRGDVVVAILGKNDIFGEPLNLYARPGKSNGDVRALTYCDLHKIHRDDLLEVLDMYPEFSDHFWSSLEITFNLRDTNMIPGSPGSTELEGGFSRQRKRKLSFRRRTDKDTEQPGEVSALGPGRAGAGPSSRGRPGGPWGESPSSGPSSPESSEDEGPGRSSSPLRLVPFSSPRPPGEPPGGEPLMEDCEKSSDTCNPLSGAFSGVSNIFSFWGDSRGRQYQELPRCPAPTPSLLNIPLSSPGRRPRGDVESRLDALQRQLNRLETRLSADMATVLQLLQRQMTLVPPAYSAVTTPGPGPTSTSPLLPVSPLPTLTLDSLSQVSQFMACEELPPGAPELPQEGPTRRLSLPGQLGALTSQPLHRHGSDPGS

This test concerns the target human ether-à-go-go-related gene (hERG) potassium channel (human, UniProt Q12809). The test is described as follows: primary screen, population patch clamp on CHO cells stably expressing hERG.
Consider `O=c1c2ccccc2nnn1CSc1ccccc1F`, for which the “hERG current change (%, negative = inhibition) at 10uM” value is on record as 6.47%. The figure for `O=C(CC1SC(=Nc2ccccc2F)N(CCN2CCOCC2)C1=O)Nc1ccc(F)cc1F` (stereo not shown) is -13.1%; for `COc1ccc(S(=O)(=O)N2CCCN(CCC(=O)Nc3cccc(C(F)(F)F)c3)CC2)cc1` it is -69.6%. The figure for `O=C1CCCc2oc3ccc(NS(=O)(=O)c4cccc5cccnc45)cc3c21` is -0.328%; for `CCc1ccc(C(=O)C23CN4CN(CN(C4)C2)C3)cc1` it is -0.0263%; for `CC(C)NC(=O)c1cnc(N2CCN(c3ccccn3)CC2)c2ccccc12` it is -17.4%. As to `CCOC(=O)N1CCN(C(=O)CSc2ccc3nnc(CCNC(=O)c4ccccc4)n3n2)CC1`, the “hERG current change (%, negative = inhibition) at 10uM” value stood at 9.93%. With `CCC(CC)C(=O)NCCNC(=O)C(CC)CC` the figure was 2.51%; with `CC(NC(=O)Cc1cccs1)C(c1cccs1)N1CCOCC1` (stereo not shown), 1.88%. The figure for `CN(C)C=Nc1ccccc1C1C=NNC1=O` (stereo not shown) is 3.88%. The figure for `CC(=O)c1c(N2CCCC2)[nH]c(-c2ccccc2)nc1=S` is -0.418%. `COc1ccc(-c2cccc(NS(=O)(=O)c3cccc([N+](=O)[O-])c3)c2)nn1`: the “hERG current change (%, negative = inhibition) at 10uM” value was -34.1%. The figure for `CCOc1ccc(NC(=O)Cn2cc(C(C)=O)c3ccccc32)cc1` is 5.55%; for `COc1ccc(C(=O)c2oc3ccc(Br)cc3c2NC(C)=O)cc1` it is -0.375%; for `CCc1ccc(NS(=O)(=O)c2cc3[nH]c(=O)c(=O)[nH]c3cc2C)cc1` it is 9.15%. The figure for `CC(=O)c1ccc(S(=O)(=O)NCc2nnnn2-c2ccccc2)cc1` is -0.0317%. With `NCCCC[C@H]1CNC(=O)C(=O)N1CC1CCCCC1` the figure was 1.26%; with `Cc1ccc(N2C(=O)[C@@H]3C(c4cccnc4)=NO[C@@H]3C2=O)c(C)c1`, 22.3%; with `C[C@]12CC[C@H]3[C@@H](CCC4=CC(=O)CC[C@@]43O)[C@@H]1CCC2=O`, 3.13%. Consider `COc1ccc(C(=O)Nc2cccc(C(=O)N/N=C/c3ccc(OC)cc3OC)c2)cc1`, for which the “hERG current change (%, negative = inhibition) at 10uM” value is reported as -1.54%. With `CC1(C)CC(NC(=O)COc2ccc([N+](=O)[O-])cc2)CC(C)(C)N1` the figure was -28.7%. With `O=C(COC(=O)c1cccnc1Nc1ccccc1F)NCCN1C(=O)CSC1=O` the figure was -27.7%; with `O=C(NCc1nnc(SCC(=O)N2CCC(Cc3ccccc3)CC2)o1)c1ccco1`, -23.9%; with `O=C(COc1ccc(Br)cc1)NCCNC(=O)c1ccccn1`, -22.5%.

Regarding `CC1CCN(c2ncnc3c2cnn3Cc2ccc(Cl)cc2)CC1`, the “hERG current change (%, negative = inhibition) at 10uM” value is -11.8%. With `CN1C(=O)CN=C(c2ccc(Cl)cc2)c2cc(Cl)ccc21` the figure was -33.8%; with `NC(=O)c1ccc(NC(=O)CN2C(=O)NC(c3ccccc3)(c3ccccc3)C2=O)cc1`, 3.45%; with `CCCC(=O)C1=C(O)C(C(=O)OC)C(C)(C)CC1=Nc1ccc(Br)cc1` (stereo not shown), 3.52%. Take `CC1C(=O)CCN(C(C)C)C1C.Cl` (stereo not shown): the “hERG current change (%, negative = inhibition) at 10uM” value amounted to 8.54%. With `O=C(COC(=O)Cc1ccccc1F)Nc1ccc(SC(F)F)cc1` the figure was -5.59%; with `Cc1cccc(OCc2ccc(C(=O)Nc3cc(C)on3)o2)c1`, 18.7%; with `COC(=O)C1=C(c2ccccc2)C[C@@H]2CC[C@H]1N2C`, 24%. The figure for `Nc1nc2c(c(=O)[nH]1)CN(Cc1ccccc1)CC2` is 7.8%; for `CC(=O)n1cc([C@@H]2C=C(C(=O)N3CCN(Cc4ccc5c(c4)OCO5)CC3)O[C@H](OCCCCO)C2)c2ccccc21` it is -50.2%; for `CCOc1ccc(CN2CCCC(CO)(Cc3ccc(F)cc3)C2)cc1` (stereo not shown) it is -62%. The figure for `CCCCCCc1cc2cc(C(=O)Nc3cccc(OC)c3)c(=O)oc2cc1O` is 25%; for `O=C(Nc1ccccc1-c1ccccc1)c1ccccc1Br` it is 6.82%; for `COCCN(C(=S)Nc1ccccc1C)C(C)c1cccnc1` (stereo not shown) it is -13.4%. For the compound `CCOc1ccc2nc(NCCNC(=O)CC)c(C#N)cc2c1`, the “hERG current change (%, negative = inhibition) at 10uM” value is reported as -12%.

Regarding `O=C(COc1ccccc1Cl)NC(=O)NC1CCCCC1`, the “hERG current change (%, negative = inhibition) at 10uM” value is recorded as 5.11%. The figure for `CCN(CC)C(=O)c1c(C)nc2ccccn12` is 11.2%; for `COc1ccccc1NC(=O)NCC(c1ccco1)N1CCCCC1` (stereo not shown) it is 14.8%; for `Nc1nnc(SCCN2C(=O)c3ccccc3C2=O)s1` it is -10.7%.
